The results in this text go back to article PMC4336329 (PLoS ONE, 2015).

In all, about 310,000 compounds went through this assay and about 14,000 (4.5%) showed an effect of 50% or more. The effect is printed as a negative number. Some of the results follow.
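Also: peak tail current of the secondary pulse compared with the same well before compound.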

The target of the assay is human ether-à-go-go-related gene (hERG) potassium channel (human, UniProt Q12809). The experiment in a line: primary screen, population patch clamp on CHO cells stably expressing hERG.
human ether-à-go-go-related gene (hERG) potassium channel, sequence (Q12809 whole entry, looked up): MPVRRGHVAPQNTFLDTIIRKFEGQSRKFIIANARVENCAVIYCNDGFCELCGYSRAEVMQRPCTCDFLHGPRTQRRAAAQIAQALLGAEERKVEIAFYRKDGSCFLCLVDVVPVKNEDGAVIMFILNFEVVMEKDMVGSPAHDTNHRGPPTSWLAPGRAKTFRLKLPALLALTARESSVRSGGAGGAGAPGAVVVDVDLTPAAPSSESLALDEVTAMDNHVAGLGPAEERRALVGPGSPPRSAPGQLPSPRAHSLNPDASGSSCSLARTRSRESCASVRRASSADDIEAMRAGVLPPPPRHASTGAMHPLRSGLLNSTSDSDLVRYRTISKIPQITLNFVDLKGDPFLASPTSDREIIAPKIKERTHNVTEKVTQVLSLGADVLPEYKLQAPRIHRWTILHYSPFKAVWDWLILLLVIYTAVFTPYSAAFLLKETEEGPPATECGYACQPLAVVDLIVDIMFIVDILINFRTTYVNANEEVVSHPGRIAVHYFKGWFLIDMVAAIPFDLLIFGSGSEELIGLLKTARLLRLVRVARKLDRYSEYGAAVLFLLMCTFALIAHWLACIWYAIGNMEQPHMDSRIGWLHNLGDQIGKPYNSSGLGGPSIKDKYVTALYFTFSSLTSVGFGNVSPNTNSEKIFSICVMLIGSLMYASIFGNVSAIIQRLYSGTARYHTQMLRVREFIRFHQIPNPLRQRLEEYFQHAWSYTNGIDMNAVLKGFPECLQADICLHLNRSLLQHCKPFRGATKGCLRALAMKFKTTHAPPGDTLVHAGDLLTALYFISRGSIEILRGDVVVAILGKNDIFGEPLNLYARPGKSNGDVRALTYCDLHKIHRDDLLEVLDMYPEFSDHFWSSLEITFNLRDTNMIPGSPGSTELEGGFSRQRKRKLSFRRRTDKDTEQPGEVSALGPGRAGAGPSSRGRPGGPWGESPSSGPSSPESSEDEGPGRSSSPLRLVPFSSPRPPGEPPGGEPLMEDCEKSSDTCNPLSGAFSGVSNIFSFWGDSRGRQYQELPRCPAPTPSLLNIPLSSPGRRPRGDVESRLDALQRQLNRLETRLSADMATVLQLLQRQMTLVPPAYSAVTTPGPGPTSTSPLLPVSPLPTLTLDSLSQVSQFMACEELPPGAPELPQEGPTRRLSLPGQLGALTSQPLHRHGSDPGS
As to `COCc1cc(C)nc(Nc2cc(C)ccc2C)c1C#N`, the “hERG current change (%, negative = inhibition) at 10uM” value worked out at 17%.
With `CN1CCc2c(OCC(=O)N3N=C(c4cccs4)CC3c3ccc(F)cc3)cccc2C1=O` (stereo not shown) the figure was -8.41%; with `Cc1ccc(NS(=O)(=O)c2cccc(C(=O)N3CCOCC3)c2)cc1`, 1.68%.
With `C=CCNC(=O)c1ccccc1NC(=O)c1ccccc1N(C)S(C)(=O)=O` the figure was 6.35%; with `OC(CNCc1ccccc1Cl)COc1ccc(F)cc1` (stereo not shown), -21.3%.
As for `CC(C)(C)OC(=O)N[C@@H](Cc1ccccc1)c1nnc(SCC(N)=O)o1`, the figure is 8.51%; as for `C=C(C)COc1ccc2c3c(c(=O)oc2c1OCC(=C)C)CCC3`, 4.39%.
As to `Cn1c(=O)c2cc(S(=O)(=O)Nc3ccc4c(c3)OCO4)ccc2n(C)c1=O`, the “hERG current change (%, negative = inhibition) at 10uM” value is recorded as -16%.
As for `Cc1ccc(-c2nc(N(C)C3CCN(C)CC3)c3ccccc3n2)cc1`, the figure is -24.4%; as for `CSc1nnc2c3cc(F)ccc3n(Cc3ccccc3)c2n1`, 13.6%; as for `CSc1ccccc1NS(=O)(=O)c1cccc2nonc12`, 1.51%.
As to `Cc1nn(-c2ccccc2)nc1CNC(=O)C(C)Cc1ccccc1` (stereo not shown), the “hERG current change (%, negative = inhibition) at 10uM” value stood at 16.8%.
On to `Cc1cccc2cc(CN(CCCN3CCOCC3)Cc3nnnn3C(C)(C)C)c(=O)[nH]c12`, for which the “hERG current change (%, negative = inhibition) at 10uM” value was -20.8%.
As for `Cc1cc(C)c2nc(NC(=O)C3CCCO3)sc2c1` (stereo not shown), the figure is -0.179%; as for `O=C(Cn1c2[n+](c3ccc(C(F)(F)F)cc31)CCCCC2)Nc1ccccc1.[Cl-]`, 12.4%.
As for `Cc1cc(NC(=O)CS(=O)(=O)c2ccc(Cl)cc2)no1`, the figure is 15.2%; as for `Cl.OC(CNC1CCCC1)COc1c(F)cc(Br)cc1F` (stereo not shown), -27.3%.
As for `Cc1ccc(NS(=O)(=O)c2cc(C(=O)N3CCc4ccccc4C3)ccc2Cl)cc1`, the figure is 8.92%.
As to `N#CC12CNCC1CN=N2` (stereo not shown), the “hERG current change (%, negative = inhibition) at 10uM” value was determined as 16.2%.
As for `CCCc1nnc(NC(=O)COc2ccc3c(c2)OCO3)s1`, the figure is 5.55%; as for `CCOCCn1c(CN2CCC(Cc3ccccc3)CC2)nc2c1c(=O)n(C)c(=O)n2C`, -47.2%.
As for `COc1ccccc1N(CC(=O)NCc1ccco1)S(C)(=O)=O`, the figure is 29.4%; as for `NC(=O)c1cccc(S(=O)(=O)N2CCCCC2)c1`, -4.67%; as for `COc1ccc(NC(=O)c2ccco2)cc1NC(=O)c1ccc(C#N)cc1F`, -10.6%.
With `Cc1ccc(CN=c2c([N+](=O)[O-])nn(-c3cccc(Cl)c3)n2O)cc1` the figure was 6.84%; with `O=C(CSc1nc2ncc(Cl)cc2[nH]1)c1ccc2c(c1)OCO2`, 7.87%; with `O=C(Nc1ccccc1O)c1ccc(NS(=O)(=O)c2cccc3cccnc23)cc1`, -9.67%.
Take `COc1cccc(OC)c1C(=O)Nc1ccccc1Sc1ccccc1`: the “hERG current change (%, negative = inhibition) at 10uM” value is given as -13.3%.
With `CC(=O)c1nccs1` the figure was 11.9%.
Take `COc1nc(N(C)S(=O)(=O)c2ccc(C)cc2)nc(C)c1Cl`: the “hERG current change (%, negative = inhibition) at 10uM” value turned out to be 5.9%.
As for `Cc1cc(C(=O)CN2C(=O)NC3(CCCc4sccc43)C2=O)c(C)n1-c1ccc(Cl)cc1` (stereo not shown), the figure is 3.87%; as for `CCOc1ccc(N2CC(C(=O)NC3CCCCCC3)CC2=O)cc1` (stereo not shown), -15.4%; as for `OC[C@H]1O[C@@H](n2cnc3cc(Cl)c(Cl)cc32)[C@H](O)[C@@H]1O`, 3.14%.
As for `O=C1CSC(c2ccccc2)N1Nc1nc(N2CCOCC2)nc(N2CCOCC2)n1` (stereo not shown), the figure is -0.218%.
On to `Nc1ccn(CC(=O)NCc2ccccc2)c(=O)n1`, for which the “hERG current change (%, negative = inhibition) at 10uM” value turned out to be 17.6%.
With `CCc1ccc(N2CC(C)Cn3c2nc2c3c(=O)n(CCN3CCOCC3)c(=O)n2C)cc1` (stereo not shown) the figure was -38.5%.
With `COC(=O)c1ccc(COc2ccc(/C=C/C(=O)c3ccc(OC)c(CSCC(=O)O)c3)cc2OC)cc1` the figure was 15%.
Take `CCOC(=O)c1sc(N2C(=O)C(O)=C(C(=O)c3ccco3)C2c2cccc([N+](=O)[O-])c2)nc1C` (stereo not shown): the “hERG current change (%, negative = inhibition) at 10uM” value worked out at 16.6%.
As for `CN1CCC(N(C)S(=O)(=O)c2ccc(NC(=O)COc3cccc(C(F)(F)F)c3)cc2)CC1`, the figure is -22.1%; as for `O=C(N[C@H](Cc1ccc(Cl)cc1)C(=O)O)OCC1c2ccccc2-c2ccccc21`, 10.5%.
As for `Cc1ccccc1NC(=O)C1CCCN1S(=O)(=O)c1ccccc1C(F)(F)F` (stereo not shown), the figure is -1.05%; as for `COc1ccc(-c2nn(-c3ccccc3)cc2/C=C/C(=O)NCCCn2ccnc2)cc1OC`, -18.4%; as for `Cc1ccc(/C=N/NC(=O)CSc2nnc(-c3ccc(Cl)cc3)n2-c2ccccc2)o1`, -39.5%.
With `O=C(COC(=O)c1ccco1)c1ccccc1` the figure was 20.9%; with `Cc1[nH]nc(SCC(=O)NC2CCCC2)c1[N+](=O)[O-]`, -16.7%; with `CCCCOC(=O)c1cc(-c2ccc(/C=N/n3cnnc3)o2)ccc1Cl`, 5.69%.
Turning to `CC(C)(CNC(=O)CNC(=O)c1ccccc1F)N1CCOCC1`, the “hERG current change (%, negative = inhibition) at 10uM” value was 21.3%.
With `Cc1ccc(Cn2cccc2C2=NC(C)CO2)cc1` (stereo not shown) the figure was -20.1%; with `COc1ccc(C(=O)NC2CC2)cc1OC1CCN(Cc2ccc(SC)cc2)CC1`, -88.7%.
Take `COc1ccc(/C=C(\C#N)C(=O)OCC(=O)NC(=O)NCCC(C)C)cc1`: the “hERG current change (%, negative = inhibition) at 10uM” value turned out to be 0.707%.
As for `CC1CCCC(N2C(=O)NC(NC(=O)c3ccco3)(C(F)(F)F)C2=O)C1C` (stereo not shown), the figure is -2.21%.
On to `O=C(O)c1ccc(COc2ccccc2[N+](=O)[O-])o1`, for which the “hERG current change (%, negative = inhibition) at 10uM” value is on record as 14.8%.
With `CCCCn1c(SCC(=O)c2ccc3c(c2)NC(=O)CO3)nc2cc(S(N)(=O)=O)ccc21` the figure was 6.96%; with `CS(=O)(=O)c1[nH]nc(-c2ccccc2)c1C#N`, 15.1%; with `CCOc1ccc(C(=O)Nc2cccc(SC)c2)cc1`, -13.1%.
With `CC(=O)Oc1ccc2c(=O)c(Oc3ccccc3)coc2c1OC(C)=O` the figure was 2.25%; with `Cc1cc2c(cc1C)N(Cc1ccc(Cl)cc1)C1=NCCCN12`, -69.8%; with `Cn1cccc1/C=N/NC(=O)c1ccn[nH]1`, 3.78%.
`CC(C)N1CCN(S(=O)(=O)c2ccccc2)CC1.O=C(O)C(=O)O`: the “hERG current change (%, negative = inhibition) at 10uM” value turned out to be 22.2%.
With `N#Cc1c(N)sc2c1CCCCCC2` the figure was -8.8%; with `CNC(=S)N/N=C/c1c(C)nn(-c2ccccc2)c1Cl`, 6.94%.
With `Cc1ccc(N2CC(C(=O)NCCS(=O)(=O)N3CCN(c4ccc(F)cc4)CC3)CC2=O)cc1` (stereo not shown) the figure was 15.8%.
Regarding `CCCCCCc1c(O)nc(SCCN2CCOCC2)[nH]c1=O.Cl`, the “hERG current change (%, negative = inhibition) at 10uM” value came out at 13.3%.
For `Cc1ccccc1NC(=S)NC(NC(=O)C(C)(C)C)C(Cl)(Cl)Cl` (stereo not shown), the “hERG current change (%, negative = inhibition) at 10uM” value was -23.3%.
As for `CCOc1ccc(C2c3[nH]c4ccccc4c3CCN2Cc2cccn2-c2ncccn2)cc1` (stereo not shown), the figure is -53.3%; as for `COCCn1c(SCC(=O)NCCc2ccc(OC)c(OC)c2)nc2c([nH]c3ccccc32)c1=O`, 4.74%.
As for `Cc1nc(NC(=S)NC(=O)c2cncc(Br)c2)ccc1Br`, the figure is 12.9%.
With `Cc1ccc(NC(=O)c2ccc(C#CC3(O)CCCCC3)cc2)cc1C` the figure was 3.93%; with `COc1ccc(CN=C2NN=C(c3ccc(Cl)cc3)CS2)cc1`, -3.21%; with `O=C(Nc1ccc2c(c1)OCO2)C(c1ccccc1)N1CCCCC1` (stereo not shown), -14.2%.
With `CCOc1cccc(/C=N/NC(=O)c2cccnc2)c1O`, the “hERG current change (%, negative = inhibition) at 10uM” value came out at 4.02%.
As for `CC1(C)Cc2c(c(N3CCOCC3)nc3snc(NC(=O)c4ccccc4)c23)CO1`, the figure is -4.78%; as for `Cc1nn(C)cc1N1C(=O)c2cccc3c(N)ccc(c23)C1=O`, 1.31%.
With `COc1ccc(CN2CN(C(C)C)CSC2=S)cc1` the figure was 8.31%.
With `O=C(NC1CCCCC1)Oc1ccccc1` the figure was 17.2%; with `CCC1CC2CC(NC(C)=O)C1C2` (stereo not shown), 5.42%; with `Cc1ccc(C)c(S(=O)(=O)N2CCN(C(=O)c3ccnn3C)CC2)c1`, -7.28%.
Take `Cc1ccc(Cn2c(N/N=C/c3ccncc3)nc3c2c(=O)n(C)c(=O)n3C)cc1`: the “hERG current change (%, negative = inhibition) at 10uM” value was -25.9%.
With `O=C(Nc1nnc(SCc2c(Cl)cccc2Cl)s1)c1ccc2ncsc2c1` the figure was 12%; with `Cc1ccsc1C(=O)NC1CCCCC1C` (stereo not shown), -17.8%; with `Br.CC(C)(C)C(=O)Cn1c(=N)n(Cc2ccccc2Cl)c2ccccc21`, -49.2%.
As for `CCN1C(=O)[C@H]2[C@@H](c3ccc(C)cc3)N3C(=O)N(c4cccc(Cl)c4)C(=O)[C@@]3(Cc3ccc(Cl)cc3)[C@H]2C1=O`, the figure is 8.27%; as for `O=C(N[C@H](CO)Cc1ccccc1)c1ccco1`, 9.08%; as for `O=C(NCc1ccccc1)C1=C[C@H](c2csc3ccccc23)C[C@H](OCc2ccc(CO)cc2)O1`, 6.12%.
As for `COC(=O)C1=C(c2ccc(F)cc2F)C[C@@H]2CC[C@H]1N2C(=O)N1CCCCC1`, the “hERG current change (%, negative = inhibition) at 10uM” value is -9.25%.
As for `COc1ccc(N(CC(=O)N2CCCC2)S(=O)(=O)c2ccc(NC(C)=O)cc2)cc1`, the figure is -9.91%; as for `Oc1ccc(/C=N/Nc2ccc(Cl)nn2)cc1O`, -25.2%; as for `O=C(NCCO)/C(=C\c1ccc(Br)cc1)NC(=O)c1cccs1`, -3.91%.
